Data on 14 molecules can be found in patent US6544989B2, “Benzazoles: benzoxazole, benzthiazole and benzimidazole derivatives” (Syngenta Limited, priority 1998, dated 2003).

Test systems include Tetranychus urticae; Musca domestica; Heliothis virescens.
Settings in all cases: 500 ppm by weight; mortality assessed usually between three and five days after treatment
The subject of another data set is Spodoptera exigua. In words: Pesticidal test, Spodoptera exigua mortality. The method, then:
The test procedure adopted with regard to each pest, except nematodes, was essentially the same and composed supporting a number of the pests on a medium which was usually a substrate, a host plant or a foodstuff on which the pests feed, and treating either or both the medium and the pests with a composition. Pest mortality was assessed usually between three and five days after treatment Knockdown of housefly (Musca domestica) was assessed 15 minutes after treatment

The next data set deals with Myzus persicae. In words: Pesticidal test, Myzus persicae mortality.

On to `CSc1nc2cc(CC(=O)Nc3snc(C)c3Cl)ccc2o1` [220(A3)], for which the “LAPHEG = Spodoptera exigua, grading of mortality (score)” value (“LAPHEG = Spodoptera exigua, grading” for short) with Spodoptera exigua is 0 (0 indicates less than 40% mortality). Moreover, the “TETRUR = Tetranychus urticae, grading of mortality (score)” value (“TETRUR = Tetranychus urticae, grading” below) in the data set with Tetranychus urticae is recorded as 0 (0 indicates less than 40% mortality). For the same molecule, in the data set with Musca domestica, the “MUSCDO AK = Musca domestica (kill), grading of mortality (score)” value (“MUSCDO AK = Musca domestica (kill)” for short) is 0 (0 indicates less than 40% mortality). The “HELIVI = Heliothis virescens, grading of mortality (score)” value (from here on “HELIVI = Heliothis virescens, grading”) in the data set on Heliothis virescens is on record as 0 (0 indicates less than 40% mortality). Besides, the “MYZUPE = Myzus persicae, grading of mortality (score)” value (from here on “MYZUPE = Myzus persicae, grading”) in the data set with Myzus persicae is 5 (5 indicates 40-79% mortality).
Consider `CCC(C)c1nc2cc(CC(=O)Nc3snc(C)c3Cl)ccc2o1` (stereo not shown) [10(A3)], for which the “LAPHEG = Spodoptera exigua, grading” value with Spodoptera exigua is listed as 5 (5 indicates 40-79% mortality). Moreover, the “TETRUR = Tetranychus urticae, grading” value with Tetranychus urticae was 0 (0 indicates less than 40% mortality). Besides, the “MUSCDO AK = Musca domestica (kill)” value in the data set with Musca domestica is 0 (0 indicates less than 40% mortality). In the data set with Heliothis virescens, the “HELIVI = Heliothis virescens, grading” value is reported as 5 (5 indicates 40-79% mortality). Further, the “MYZUPE = Myzus persicae, grading” value with Myzus persicae is given as 9 (9 indicates 80-100% mortality).
As for `CCN(C(=O)Cc1ccc2oc(CC(C)(C)C)nc2c1)c1snc(C)c1Cl` [15(C3)], the “LAPHEG = Spodoptera exigua, grading” value with Spodoptera exigua was 9 (9 indicates 80-100% mortality). Besides, the “TETRUR = Tetranychus urticae, grading” value in the data set with Tetranychus urticae is 9 (9 indicates 80-100% mortality). Moreover, the “MUSCDO AK = Musca domestica (kill)” value in the data set on Musca domestica is 0 (0 indicates less than 40% mortality). Also, the “HELIVI = Heliothis virescens, grading” value with Heliothis virescens is given as 0 (0 indicates less than 40% mortality). Further, in the data set with Myzus persicae, the “MYZUPE = Myzus persicae, grading” value is on record as 9 (9 indicates 80-100% mortality).
As to `Cc1nsc(NC(=O)Cc2ccc3oc(CF)nc3c2)c1Cl` [73(A3)], the “LAPHEG = Spodoptera exigua, grading” value with Spodoptera exigua is on record as 0 (0 indicates less than 40% mortality). Further, in the data set on Tetranychus urticae, the “TETRUR = Tetranychus urticae, grading” value is on record as 0 (0 indicates less than 40% mortality). The “MUSCDO AK = Musca domestica (kill)” value with Musca domestica is reported as 0 (0 indicates less than 40% mortality). In addition, the “HELIVI = Heliothis virescens, grading” value in the data set on Heliothis virescens is given as 5 (5 indicates 40-79% mortality). For the same molecule, the “MYZUPE = Myzus persicae, grading” value in the data set on Myzus persicae is 9 (9 indicates 80-100% mortality).
With `CCCN(C(=O)Cc1ccc2oc(CC(C)(C)C)nc2c1)c1snc(C)c1Cl` [15(D3)], in the data set with Spodoptera exigua, the “LAPHEG = Spodoptera exigua, grading” value was 5 (5 indicates 40-79% mortality). Besides, the “TETRUR = Tetranychus urticae, grading” value in the data set with Tetranychus urticae is 9 (9 indicates 80-100% mortality). Further, in the data set on Musca domestica, the “MUSCDO AK = Musca domestica (kill)” value is given as 0 (0 indicates less than 40% mortality). The “HELIVI = Heliothis virescens, grading” value with Heliothis virescens is listed as 5 (5 indicates 40-79% mortality). In addition, in the data set with Myzus persicae, the “MYZUPE = Myzus persicae, grading” value was 9 (9 indicates 80-100% mortality).
As for `Cc1nsc(NC(=O)Cc2ccc3oc(COc4ccccc4)nc3c2)c1Cl` [140(A3)], the “LAPHEG = Spodoptera exigua, grading” value in the data set on Spodoptera exigua is reported as 0 (0 indicates less than 40% mortality). Besides, in the data set with Tetranychus urticae, the “TETRUR = Tetranychus urticae, grading” value is on record as 0 (0 indicates less than 40% mortality). Further, the “MUSCDO AK = Musca domestica (kill)” value in the data set on Musca domestica was 0 (0 indicates less than 40% mortality). Further, in the data set with Heliothis virescens, the “HELIVI = Heliothis virescens, grading” value is 0 (0 indicates less than 40% mortality). Further, the “MYZUPE = Myzus persicae, grading” value in the data set with Myzus persicae is 0 (0 indicates less than 40% mortality).
As to `Cc1nc2cc(CC(=O)Nc3snc(C)c3Cl)ccc2s1` [2(A13)], in the data set on Spodoptera exigua, the “LAPHEG = Spodoptera exigua, grading” value is 0 (0 indicates less than 40% mortality). Besides, the “TETRUR = Tetranychus urticae, grading” value in the data set with Tetranychus urticae is recorded as 0 (0 indicates less than 40% mortality). For the same molecule, the “MUSCDO AK = Musca domestica (kill)” value in the data set on Musca domestica was 0 (0 indicates less than 40% mortality). Moreover, the “HELIVI = Heliothis virescens, grading” value in the data set on Heliothis virescens was 0 (0 indicates less than 40% mortality). Besides, the “MYZUPE = Myzus persicae, grading” value in the data set on Myzus persicae is recorded as 0 (0 indicates less than 40% mortality).
Consider `Cc1nsc(NC(=O)Cc2ccc3oc(-c4ccccc4)nc3c2)c1Cl` [248(A3)], for which the “LAPHEG = Spodoptera exigua, grading” value with Spodoptera exigua was 0 (0 indicates less than 40% mortality). Also, in the data set with Tetranychus urticae, the “TETRUR = Tetranychus urticae, grading” value is reported as 0 (0 indicates less than 40% mortality). For the same molecule, the “MUSCDO AK = Musca domestica (kill)” value in the data set on Musca domestica is 0 (0 indicates less than 40% mortality). In the data set on Heliothis virescens, the “HELIVI = Heliothis virescens, grading” value is on record as 5 (5 indicates 40-79% mortality). For the same molecule, the “MYZUPE = Myzus persicae, grading” value in the data set on Myzus persicae is listed as 0 (0 indicates less than 40% mortality).
In the case of `Cc1nc2ccc(CC(=O)Nc3snc(C)c3Cl)cc2o1` [2(A23)], the “LAPHEG = Spodoptera exigua, grading” value in the data set on Spodoptera exigua is 0 (0 indicates less than 40% mortality). Moreover, the “TETRUR = Tetranychus urticae, grading” value with Tetranychus urticae is reported as 0 (0 indicates less than 40% mortality). Moreover, the “MUSCDO AK = Musca domestica (kill)” value in the data set with Musca domestica is on record as 0 (0 indicates less than 40% mortality). For the same molecule, the “HELIVI = Heliothis virescens, grading” value in the data set with Heliothis virescens is listed as 0 (0 indicates less than 40% mortality). Further, the “MYZUPE = Myzus persicae, grading” value in the data set with Myzus persicae was 0 (0 indicates less than 40% mortality).
As to `CCCc1nc2cc(CC(=O)N(COCC)c3snc(C)c3Cl)ccc2o1` [4(L3)], in the data set on Spodoptera exigua, the “LAPHEG = Spodoptera exigua, grading” value is 9 (9 indicates 80-100% mortality). Besides, in the data set with Tetranychus urticae, the “TETRUR = Tetranychus urticae, grading” value is 9 (9 indicates 80-100% mortality). In addition, the “MUSCDO AK = Musca domestica (kill)” value in the data set on Musca domestica was 5 (5 indicates 40-79% mortality). Moreover, in the data set on Heliothis virescens, the “HELIVI = Heliothis virescens, grading” value is 9 (9 indicates 80-100% mortality). In addition, in the data set on Myzus persicae, the “MYZUPE = Myzus persicae, grading” value is 9 (9 indicates 80-100% mortality).
Turning to `Cc1nsc(NC(=O)Cc2ccc3oc(SC(C)(C)C)nc3c2)c1Cl` [224(A3)], in the data set on Spodoptera exigua, the “LAPHEG = Spodoptera exigua, grading” value is on record as 0 (0 indicates less than 40% mortality). In addition, in the data set with Tetranychus urticae, the “TETRUR = Tetranychus urticae, grading” value is given as 9 (9 indicates 80-100% mortality). Moreover, in the data set with Musca domestica, the “MUSCDO AK = Musca domestica (kill)” value was 0 (0 indicates less than 40% mortality). Further, in the data set on Heliothis virescens, the “HELIVI = Heliothis virescens, grading” value is 5 (5 indicates 40-79% mortality). Besides, the “MYZUPE = Myzus persicae, grading” value in the data set with Myzus persicae was 9 (9 indicates 80-100% mortality).
With `C=CCN(C(=O)Cc1ccc2oc(CCC)nc2c1)c1snc(C)c1Cl` [4(E3)], the “LAPHEG = Spodoptera exigua, grading” value in the data set on Spodoptera exigua is reported as 0 (0 indicates less than 40% mortality). In the data set with Tetranychus urticae, the “TETRUR = Tetranychus urticae, grading” value is reported as 5 (5 indicates 40-79% mortality). For the same molecule, in the data set on Musca domestica, the “MUSCDO AK = Musca domestica (kill)” value is listed as 0 (0 indicates less than 40% mortality). Moreover, the “HELIVI = Heliothis virescens, grading” value with Heliothis virescens is 0 (0 indicates less than 40% mortality). The “MYZUPE = Myzus persicae, grading” value in the data set on Myzus persicae is 9 (9 indicates 80-100% mortality).
As to `COCCOCN(C(=O)Cc1ccc2oc(CC(C)(C)C)nc2c1)c1snc(C)c1Cl` [15(M3)], in the data set on Spodoptera exigua, the “LAPHEG = Spodoptera exigua, grading” value is recorded as 5 (5 indicates 40-79% mortality). For the same molecule, the “TETRUR = Tetranychus urticae, grading” value in the data set with Tetranychus urticae is 9 (9 indicates 80-100% mortality). Moreover, the “MUSCDO AK = Musca domestica (kill)” value in the data set with Musca domestica is listed as 0 (0 indicates less than 40% mortality). The “HELIVI = Heliothis virescens, grading” value in the data set with Heliothis virescens is reported as 0 (0 indicates less than 40% mortality). Besides, the “MYZUPE = Myzus persicae, grading” value in the data set on Myzus persicae is 9 (9 indicates 80-100% mortality).
In the case of `Cc1nsc(NC(=O)Cc2ccc3oc(-c4ccc(Cl)cc4Cl)nc3c2)c1Cl` [257(A3)], the “LAPHEG = Spodoptera exigua, grading” value with Spodoptera exigua was 0 (0 indicates less than 40% mortality). In the data set on Tetranychus urticae, the “TETRUR = Tetranychus urticae, grading” value is reported as 9 (9 indicates 80-100% mortality). Besides, in the data set on Musca domestica, the “MUSCDO AK = Musca domestica (kill)” value is listed as 5 (5 indicates 40-79% mortality). Besides, in the data set on Heliothis virescens, the “HELIVI = Heliothis virescens, grading” value is recorded as 5 (5 indicates 40-79% mortality). For the same molecule, the “MYZUPE = Myzus persicae, grading” value with Myzus persicae is given as 0 (0 indicates less than 40% mortality).
